Screen size: about 150,000 compounds; about 540 (0.36%) showed an effect of 50% or more. The list shows a part of the results.
tested on: Plasmodium falciparum; assay: Primary screen in NF54 nanoGlo assay, in single point, at 2uM, 72h; a lower Z score goes with more inhibition; assay type: functional, Erythrocyte; conditions: timepoint 72 hour

| Structure (SMILES) | % Inhibition | Z score |
| --- | --- | --- |
| Cn1cnnc1[C@@H]1CCCN1Cc1cc(Cl)cc(C(F)(F)F)c1 | -1% | 0.17 |
| COc1cc2c(-c3ccccc3)c(C)oc2cc1CN1CCc2ccccc2C1 | -3% | 0.58 |
| COc1nccnc1N1CCN(C)C[C@H](O)C1 | -1% | 0.2 |
| CCOc1cc(CNC(=O)Cn2cnc3onc(C)c3c2=O)ccc1OC | -4% | 0.55 |
| O=C(Nc1onc2c1CCC2)c1ccc2ncsc2c1 | 0% | 0.01 |
| CC(=O)n1nc2c(c1C)[C@@H](c1ccc(Cl)cc1)c1c(nc(C)[nH]c1=O)O2 | -5% | 0.52 |
| CN1C(=O)COc2cc(-c3noc(C(=O)NCc4ccccn4)n3)ccc21 | 4% | -0.45 |
| Nc1cc(C(=O)NCC[C@H]2CCCOC2)n[nH]1 | -13% | 2.39 |
| COCCc1noc(CNC(=O)Cc2ccsc2)n1 | -11% | 1.28 |
| CCN(CC)C(=O)[C@@H]1CCCN1C(=O)c1ccnc(N(C)C)c1 | -18% | 2.85 |
| CC(C)(C)OC(=O)NCC1(C(=O)NCC2CCC3(CC2)OCCO3)CCCC1 | -2% | 0.25 |
| Cc1ccc(NC(=O)COc2nc(C)no2)cc1 | -5% | 0.72 |
| Cc1cc(C)n(-c2ccc(=O)n(CC3CN(C(=O)c4ccc(F)cc4)C3)n2)n1 | -11% | 1.27 |
| c1cc2c(cc1-c1csc(N3CCCC3)n1)OCO2 | 0% | 0.05 |
| Cc1csc(CN(C)C(=O)N(Cc2cscn2)c2ccccc2)n1 | -6% | 0.74 |
| O=C1CC(c2c(F)cccc2Cl)=NN1CCO | -21% | 2.93 |
| O=C(NC(c1cccs1)[C@H]1C[C@@H](O)C1)c1ccccc1N1CCCC1 (some centres not stated) | -10% | 0.93 |
| CON(C)c1nc(C)nc(C)c1Br | -11% | 2.27 |
| COC[C@@H]1CCC[C@@H]1NC(=O)CCC(=O)c1ccccc1 | -5% | 0.76 |
| CC(C)c1cc(C(=O)N2CC[C@H](N3CCCCC3)C2)nc(N)n1 | 0% | 0.05 |
| O=C(CCn1cc(Cl)cn1)N1CC(c2cccnc2)C1 | 6% | -1.16 |
| CCC(NC(=O)CCN1CCCCO1)[C@H]1C[C@@H](O)C1 (some centres not stated) | -13% | 2.41 |

| Structure (SMILES) | % Inhibition | Z score |
| --- | --- | --- |
| CCc1ncnc(NCCc2nc3c(s2)COCC3)c1F | -3% | 0.35 |
| CCN1C[C@H](CN(C)C(=O)c2ccc(S(=O)(=O)NC3CC3)o2)Oc2ccccc21 | 7% | -1.04 |
| CC1COC(c2cccc(Cl)c2)CN1c1nccn2cnnc12 (configuration not stated) | 1% | -0.13 |
| Cc1ccc2c(c1)C(=O)NC1(CCN(C(=O)c3ccc4c(c3)OCO4)CC1)N2C | -4% | 0.55 |
| COc1ccc2cc1Oc1cccc(c1)CO[C@H]1CCN(C(=O)c3ccc(N4CCCC4=O)cc3)C[C@H]1NC(=O)CC2 | -22% | 2.79 |
| Cc1coc(-c2cc(NC(=O)N3CC[C@](C)(C(=O)O)C3)ccc2C)n1 | -1% | 0.11 |
| O=C(Cn1cccn1)N1CCC[C@H](CCc2ccccc2)C1 | -11% | 0.97 |
| Cc1cnc(C(=O)N(Cc2nnc(-c3ccccc3)o2)C(C)C)cn1 | -16% | 1.37 |
| O=C(NCCOCC(F)(F)F)N1CCCC2CCCC21 (configuration not stated) | -12% | 1.88 |
| c1ccc(Cc2noc(CN3CCC4(CC3)C[C@@H]4c3nnc4n3CCCCC4)n2)cc1 | -7% | 1.15 |
| Cc1ccc2snc(C(=O)N3CCC[C@H]3c3ccn[nH]3)c2c1 | -3% | 0.42 |
| O=C(Nc1nc2cc3c(cc2s1)OCCO3)c1ccc2ccccc2c1 | -14% | 2.75 |
| COc1ccc(-c2cc3n(n2)CC(C)(C(=O)NC2CCCCCCC2)N(CC2CCCO2)C3=O)cc1 (configuration not stated) | 2% | -0.25 |
| Cc1n[nH]c(=O)c(C(=O)N[C@H]2CCc3nccn3C2)c1C | -5% | 0.8 |
| O=S(=O)(Nc1cc(-c2ccoc2)no1)c1ccc(F)c(Cl)c1 | 1% | -0.15 |
| O=C(Nc1cccnn1)c1cccc(S(=O)(=O)N2CCCCC2)c1 | -10% | 1.68 |
| Cc1coc(C)c1C(=O)N1CCN([C@@H](C)C(=O)N2CCOCC2)CC1 | 1% | -0.11 |
| Cc1ccc(CN(C)C(=O)[C@H]2CCc3nn(C)c(=O)n3C2)s1 | 0% | 0.01 |
| CC(C)NC(=O)c1cc2c(s1)N(CC1CC1)CCCC2 | -4% | 0.78 |
| C[C@H](NCC1(N2CCCC2)CCOCC1)c1ncc(C(C)(C)C)o1 | 5% | -0.47 |
| CC(C)[C@H](NCc1cnn(C)c1)C(=O)OC(C)(C)C | -18% | 1.78 |
| CCOc1ccncc1S(=O)(=O)N1Cc2ccccc2[C@@H]1C | -11% | 0.96 |

| Structure (SMILES) | % Inhibition | Z score |
| --- | --- | --- |
| Cc1ccc(C(=O)N2CCN(c3ncccn3)[C@H]3CS(=O)(=O)C[C@H]32)s1 | -2% | 0.31 |
| COC(=O)c1ccccc1CCC(=O)Nc1cnc(CO)cn1 | 5% | -0.98 |
| Cc1ccc(-c2nn(C)c(=O)c3c2CCCC3)cc1S(=O)(=O)Nc1cccc(C)c1C | -8% | 1.21 |
| CCCN(Cc1c(C)nn(-c2ccccc2)c1Oc1ccc(F)cc1F)C(=O)C1CCC1 | 1% | -0.11 |
| Cc1c(NCc2cccc(C#N)c2)cnn1[C@H]1CCOC1 | 18% | -2.09 |
| O=C(Cc1ccc(NS(=O)(=O)c2cccs2)cc1)N1CCC1 | 9% | -1.13 |
| CN(Cc1ccncc1Cl)Cc1nccn1CC(F)(F)F | -3% | 0.28 |
| O=C(NCc1ccsc1)c1ccc(S(=O)(=O)N2CCOCC2)cc1 | -16% | 2.29 |
| O=C(Cc1ccccc1)N1CCN(C(=O)Nc2ccon2)CC1 | -1% | 0.09 |
| O=C(Nc1nnc2ccccn12)c1ccc2c(c1)OCO2 | -9% | 0.99 |
| Cc1[nH]c2c(F)cc(F)cc2c1CCNC(=O)c1cnco1 | -10% | 1.9 |
| Cn1c(=O)c2c(O)c3ncnnc3nc2n(C)c1=O | -34% | 4.02 |
| O=C(NCc1nccnc1-c1ccoc1)c1ccc2c(c1)OCO2 | -4% | 0.59 |
| CCCc1c(C(=O)N2CC(=O)C2)cnn1C1CCCC1 | -5% | 0.65 |
| Cc1c[nH]nc1CN1CCCC[C@H]1c1nccs1 | 10% | -1.27 |
| CN(Cc1ccc2nonc2c1)C(=O)COC[C@H]1CCCCO1 | -4% | 0.49 |
| O=C(O)CN(C(=O)c1ccnn1CC1CCC1)C1CCCCC1 | -3% | 0.36 |
| Cc1ccc(C(=O)N[C@H](CO)CC(C)(C)C)c(F)c1 | -4% | 0.33 |
| CC(C)N(C)C(=O)[C@@H]1CC(=O)c2sc(NC(=O)C3CCC3)nc2C1 | -1% | 0.21 |
| COc1ccnc(N[C@@H]2c3ccccc3C[C@@H]2O)n1 | 13% | -1.68 |
| C[C@H](Nc1cnc2ccccc2n1)c1nncn1C | -12% | 1.26 |
| N#Cc1cccnc1N[C@H]1CC(=O)N(CC2CCCCC2)C1 | -10% | 1.53 |

| Structure (SMILES) | % Inhibition | Z score |
| --- | --- | --- |
| CC[C@H](NC(=O)Nc1cccc(Cl)c1)c1nnc2n1CCCCC2 | 14% | -1.87 |
| O=C(NCCS(=O)(=O)NC(c1ccccc1)c1ccccc1)c1ccccc1 | 0% | 0.03 |
| C[C@]1(CNC(=O)Cc2cn3cc(F)ccc3n2)CCCCO1 | -5% | 0.56 |
| Cn1cc(Br)c2nc[nH]c(=O)c21 | -14% | 1.39 |
| C[C@@H](C(=O)Nc1nncs1)N(C)Cc1noc(C2CCCC2)n1 | 4% | -0.77 |
| O=C(Nc1onc2c1CCC2)c1ccc2ccccc2c1 | 76% | -8.19 |
| CN1CCC[C@H](CN(C)Cc2ccc(Cl)o2)C1 | 8% | -1.09 |
| CC(O)C1CCCCN1S(=O)(=O)c1cnc2ccc(F)cc2c1 (configuration not stated) | -3% | 0.48 |
| Cn1ccc(NC(=O)N[C@H]2CCN(CC(F)F)C2)cc1=O | -14% | 2.47 |
| CN(C)c1nc([C@H]2C[C@@H](Nc3nc(N)nc4c3CCC4)C2)cc(=O)[nH]1 | -4% | 0.39 |
| Cc1cccc(CC(=O)NC2CC3CCC(C2)N3S(C)(=O)=O)c1 (configuration not stated) | 5% | -0.82 |
| CC[C@H](Nc1ccc(OC(C)C)c(C)c1)C(N)=O | 11% | -1.6 |
| Cn1cccc1CN[C@H]1[C@H](O)[C@@H](N2CCN(c3ccccc3)CC2)[C@@H]2OC[C@H]1O2 | -4% | 0.55 |
| C[C@@H](C(=O)N(C)c1ccc(Br)cc1Cl)n1cncn1 | 5% | -0.67 |
| COc1ccccc1C(C)(C)c1noc([C@@]23CCCC[C@@H]2NCC3)n1 | -2% | 0.35 |
| O=C(CN1CCC(c2nnc(C(F)(F)F)o2)CC1)N1CCC(Cc2ccccc2)CC1 | -8% | 0.93 |
| O=S1(=O)C[C@H](NC2CCCC2)[C@@H](S(=O)(=O)c2cccs2)C1 | 1% | -0.1 |
| CCn1ccnc1[C@H]1CCCN(C(=O)c2cccnc2O)C1 | -16% | 1.44 |
| C[C@@H](O)CN(C)C(=O)NC[C@H]1CC[C@H](c2ccccc2)O1 | 2% | -0.29 |
| O=C(Nc1cccnc1)c1cc2c(s1)CCCCC2 | -9% | 1.24 |

Source: ChEMBL document CHEMBL4888484, “Replenishing the malaria drug discovery pipeline: Screening and hit evaluation of the MMV Hit Generation Library 1 (HGL1) against asexual blood stage Plasmodium falciparum ,using a nano luciferase reporter read-out” (2022)
